Molecules are shown by their SMILES. Out of some 150,000 compounds screened, about 540 (0.36%) showed an effect of 50% or more. The list shows a part of the results.

The test system of the experiment is Plasmodium falciparum. Kind of experiment: Primary screen in NF54 nanoGlo assay, in single point, at 2uM, 72h; a lower Z score goes with more inhibition. It is filed as functional, Erythrocyte. Particulars: timepoint 72 hour.
Take `O=C([C@@H]1COCC(=O)N1Cc1ccccc1)N1CCCc2ccccc21`: the % Inhibition (commonly the drop in the measured response relative to a control, in per cent) was 4% and the Z score is listed as -0.83.
In the same order, the values of `CCCCN1CCc2ccc(NC(=O)[C@H](C)NC(C)=O)cc21` are -10% and 1.03.
In the same order, the values of `N#Cc1c2n(c(=O)n([C@H]3CCN(CC(F)(F)F)C3=O)c1=O)CCC2` are 0% and 0.04.
The corresponding values for `Oc1cc(CC[C@H]2CCCCN2)cc(-c2cc(N3CCOCC3)ncn2)c1` are 7% and -0.99.
In the case of `CC(C)CN1CCC(N2CC(Oc3cccc(C(=O)N4CCCC4)c3)C2)CC1`, the “% Inhibition” value is -4% and the Z score is recorded as 0.5.
In the same order, the values of `CCOc1cc(C(F)(F)F)cc(N)n1` are -14% and 1.2.
The corresponding values for `Cc1nn(C(C)C)c(C)c1CC(=O)N1CCC2(CC1)C[C@@H](O)CCO2` are 1% and -0.12.
Regarding `Cn1c(CCNC(=O)Nc2nncs2)nc2c(F)cccc21`, the “% Inhibition” value is on record as -2% and the Z score was 0.33.
In the case of `Cc1cc([C@@H]2CCCCCN2S(=O)(=O)c2ccc3c(c2)OCCO3)no1`, the “% Inhibition” value was -22% and the Z score is 1.94.
The corresponding values for `COc1ncc(C(=O)N2CCN(c3cccc(Cl)c3)CC2)cn1` are -7% and 1.08.
The corresponding values for `CC(NS(=O)(=O)c1ccc(NC(=O)Cc2ccc(Cl)cc2)cc1)C1CC2CCC1C2` (centres undefined) are -1% and 0.21.
As to `c1cncc(CCNc2nc(C3CCCC3)nc3c2CCOCC3)c1`, the “% Inhibition” value is recorded as -6% and the Z score stood at 1.03.
The corresponding values for `COCc1cc(N2CCO[C@H](C(F)(F)F)C2)ncn1` are -11% and 2.19.
The corresponding values for `NC(=O)c1ccc(NC(=O)C2CN(C(=O)c3c[nH]c4ccccc34)C2)cc1` are -18% and 2.09.
In the same order, the values of `COc1ccc([C@H]2NCCc3c2[nH]c2ccc(OCc4ccccc4)cc32)cc1COc1c(C)cccc1C` are 10% and -1.27.
Consider `O=C(Nc1ccc(N2CCOCC2)cc1)c1ccc2nc(-c3ccccc3)cn2c1`, for which the “% Inhibition” value is given as -7% and the Z score was 1.
As to `Cc1noc(C)c1CNC[C@H]1CN(C2CC2)CCO1`, the “% Inhibition” value was -20% and the Z score is recorded as 2.48.
The corresponding values for `O=C(NCC1Cc2ccccc21)NC1CCOC(c2ccccc2)C1` (centres undefined) are -11% and 0.92.
In the same order, the values of `O=C(NC(c1cccc(Cl)c1)C1CCCCC1)C1CCC(C(=O)O)NC1` (centres undefined) are -9% and 1.06.
For `Cc1ccc(S(=O)(=O)NCc2nc3cccnc3n2C2CC2)cc1C`, the “% Inhibition” value is 3% and the Z score was -0.58.
The corresponding values for `COCCn1cncc1CN1CC[C@H]1c1cccs1` are 5% and -0.94.
The corresponding values for `CCOC1CC(NC(=O)NCc2scnc2C)C12CCCC2` (centres undefined) are -9% and 0.93.
As for `CC(=O)NC[C@H]1COCc2nc3ccc(C)cc3n21`, the “% Inhibition” value is on record as -9% and the Z score is 1.42.
The corresponding values for `COc1cc(C)ccc1Oc1ccc(NC(=O)N2CCC[C@@H]2CCO)cc1F` are -1% and 0.27.
With `O=C(Nc1ccc(C(F)(F)F)cc1)c1ccc2c(c1)CCCN2S(=O)(=O)c1ccccc1`, the “% Inhibition” value is reported as -4% and the Z score worked out at 0.69.
In the same order, the values of `O=C(c1ccc2[nH]c3c(c2c1)CCCC3)N1CCC1` are -12% and 1.59.
For the compound `Cc1ccc2nsnc2c1NC(=O)N1CCN(CCOCCO)CC1`, the “% Inhibition” value is recorded as -5% and the Z score is given as 0.75.
The corresponding values for `Cc1ccccc1CCNc1cc([C@H]2C[C@H](N)C2)ncn1` are -8% and 0.83.
On to `COc1ccc(-c2cc(C(=O)Nc3nc(C)c(C)s3)nn2[C@H]2CCS(=O)(=O)C2)cc1`, for which the “% Inhibition” value is recorded as -18% and the Z score amounted to 2.08.
In the same order, the values of `O=C(NC1CCCCCC1)c1ccc2cnn(Cc3ccc(F)cc3)c2c1` are -22% and 1.94.
The corresponding values for `CCN(Cc1ccc(C(=O)NCc2ccc3c(c2)OCO3)c(=O)[nH]1)[C@H]1COC[C@@H]1O` are -16% and 1.87.
In the same order, the values of `COc1cc(OC)cc(C(=O)N2CCN([C@H](C(=O)N3CCc4ccccc4C3)C3CCCC3)CC2)c1` are 9% and -1.55.
For the compound `CC[C@@]1(c2cnn(C)c2)NC(=O)N(Cc2ccc(F)cc2C#N)C1=O`, the “% Inhibition” value is listed as 6% and the Z score is -0.9.
In the same order, the values of `CC1=NN(c2nccc3sccc23)C(=O)[C@H]1C` are -6% and 1.16.
In the same order, the values of `CC(O)C1CCCN(CC(C#N)CCC#N)C1` (centres undefined) are -6% and 1.17.
Consider `CCC(NC(=O)CCc1scnc1C)[C@H]1C[C@H](O)C1` (some centres undefined), for which the “% Inhibition” value was 0% and the Z score was -0.03.
In the same order, the values of `CCOC(=O)[C@H](Cc1ccccc1)Nc1ncnc2onc(C)c12` are 3% and -0.57.
In the same order, the values of `CCN(Cc1cc(Cl)ccc1OC)c1nc(C)nc2oc(C)nc12` are 14% and -1.79.
The corresponding values for `O=C(c1ncoc1C1CC1)N1CCc2ccnc(O)c2C1` are 18% and -2.12.
For the compound `CCCc1ncncc1C(=O)N[C@@H](C)c1nncn1CCC`, the “% Inhibition” value is reported as -6% and the Z score was found to be 0.58.
Consider `O=C(Nc1nc2ccccc2s1)C(Cc1ccccc1)Cc1ccccc1`, for which the “% Inhibition” value stood at 12% and the Z score is on record as -1.53.
The corresponding values for `Cc1cc(NC(=O)[C@H]2CCCN(c3ccnc(-c4cccc(F)c4)n3)C2)ccc1Br` are -15% and 1.78.
